Test results published in patent US20230241168A1 (ALPINE IMMUNE SCIENCES, published 2023).

T1: recombinant human APRIL (human, UniProt O75888 105-250, limits assumed)
T1 sequence (looked up): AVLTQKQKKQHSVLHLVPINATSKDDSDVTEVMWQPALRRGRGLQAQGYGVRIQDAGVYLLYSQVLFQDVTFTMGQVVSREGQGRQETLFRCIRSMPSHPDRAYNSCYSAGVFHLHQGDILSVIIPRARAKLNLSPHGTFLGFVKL

B1: CTLA-4 WT ECD 1 (G4S)2 Fc (G4S)2 TACI 516 (Fc fusion)
chain: [about 120 residues with changes skipped]GGGGSGGGGSEPKSSDKTHTCPPCPAPEAEGAPSVFLFPPKPKDTLMISRTPEVTCVVVDVSHEDPEVKFNWYVDGVEVHNAKTKPREEQYNSTYRVVSVLTVLHQDWLNGKEYKCKVSNKALPAPIEKTISKAKGQPREPQVYTLPPSRDELTKNQVSLTCLVKGFYPSDIAVEWESNGQPENNYKTTPPVLDSDGSFFLYSKLTVDKSRWQQGNVFSCSVMHEALHNHYTQKSLSLSPGGGGGSGGGGSVAMRSCPEEQYWDPLLGTCMSCKTICNHQSQRTCAAFCRSLSCRKEQGKFYDHLLRDCISCASICGQHPKQCAYFCENKLRS
B2: CTLA 4 668 (G4S)2 Fc (G4S)2 TACI 516 (Fc fusion)
chain: [about 120 residues with changes skipped]GGGGSGGGGSEPKSSDKTHTCPPCPAPEAEGAPSVFLFPPKPKDTLMISRTPEVTCVVVDVSHEDPEVKFNWYVDGVEVHNAKTKPREEQYNSTYRVVSVLTVLHQDWLNGKEYKCKVSNKALPAPIEKTISKAKGQPREPQVYTLPPSRDELTKNQVSLTCLVKGFYPSDIAVEWESNGQPENNYKTTPPVLDSDGSFFLYSKLTVDKSRWQQGNVFSCSVMHEALHNHYTQKSLSLSPGGGGGSGGGGSVAMRSCPEEQYWDPLLGTCMSCKTICNHQSQRTCAAFCRSLSCRKEQGKFYDHLLRDCISCASICGQHPKQCAYFCENKLRS
B3: CTLA-4 92 Fc K + BCMA 357 Fc H (Fc fusion)
chain 1: KAMHVAQPAVVLASSRGIASFVCEYASPWKATEVRVTVLRQADSQVTEVCAATYMMGSELTFPDDSICTGTSSGNQVNLTIRGLRAMDTGLYICKVEQMYPPPYLLGIGNGTQIYVIDPEPCPDSDGSGGGGSEPKSSDKTHTCPPCPAPEAEGAPSVFLFPPKPKDTLMISRTPEVTCVVVDVSHEDPEVKFNWYVDGVEVHNAKTKPREEQYNSTYRVVSVLTVLHQDWLNGKEYKCKVSNKALPAPIEKTISKAKGQPREPQVYTLPPCREEMTKNQVSLWCLVKGFYPSDIAVEWESNGQPENNYKTTPPVLDSDGSFFLYSKLTVDKSRWQQGNVFSCSVMHEALHNHYTQKSLSLSPG
chain 2: LQMAGQCSQNEYFDSLLYACIPCQLRCSSNTPPLTCQRYCNASVTNSVKGTNAGSGGGGS[human IgG1 Fc with changes skipped]
B4: CTLA-4 113 Fc K/BCMA 357 Fc H (Fc fusion)
chain 1: B3 chain 1
chain 2: LQMAGQCSQNEYFDSLLYACIPCQLRCSSNTPPLTCQRYCNASVTNSVKGTNAGSGGGGS[human IgG1 Fc with changes skipped]

The binders below were run against T1, recombinant human APRIL (assay: cell-based or functional assay).
With B1 the “IC50 (nM) APRIL” value was 19.1 nM and the “IC50 APRIL (Δ Parental vTD)” value was 2.1 ratio. With B2 the “IC50 (nM) APRIL” value was 20 nM and the “IC50 APRIL (Δ Parental vTD)” value was 2.2 ratio. B3 was tested, and the “IC50 (nM) APRIL” value was 4.19 nM. In the case of B4, the “IC50 (nM) APRIL” value is reported as 5.2 nM.

These binders were tested against recombinant human BAFF (human, UniProt Q9Y275 part only) (assay: cell-based or functional assay).
UniProt Q9Y275, sequence (Q9Y275 134-285 limits assumed): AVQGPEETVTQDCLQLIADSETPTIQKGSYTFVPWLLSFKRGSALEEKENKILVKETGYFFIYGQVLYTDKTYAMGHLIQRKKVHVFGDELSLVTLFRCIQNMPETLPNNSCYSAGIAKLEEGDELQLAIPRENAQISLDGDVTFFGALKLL
For B1, the “IC50 (nM) BAFF” value was 9.46 nM and the “IC50 BAFF (Δ Parental vTD)” value was 3.7 ratio. With B2 the “IC50 (nM) BAFF” value was 10.1 nM and the “IC50 BAFF (Δ Parental vTD)” value was 3.9 ratio. B3 was tested, and the “IC50 (nM) BAFF” value was 5.38 nM. B4 was tested, and the “IC50 (nM) BAFF” value was 5.15 nM.
